Test results taken from the supplement of paper PMC8728848.
This is one part of the list.

Tests used:
Test in all cases: glycan array binding signal (z-score within array); higher = stronger binding
Settings in all cases: glycan notation: IUPAC condensed, linker removed
[1] = biological target: Gal(b1-4)GlcNAc(b1-3)[GlcNAc(b1-6)]Gal(b1-4)GlcNAc
Procedure, shortened: (§1)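 The binding signal is a Z-score computed within each array. Data were drawn from 3228 arrays in the Consortium for Functional Glycomics database, restricted to those with a known protein sequence. Scores were averaged over arrays of the same protein sequence at different concentrations or buffers, and over linkers, and negative values can be taken as non-binding.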

[2] = biological target: Gal(b1-4)GlcNAc(b1-6)Gal(b1-4)GlcNAc
Procedure, shortened: as §1

[3] = biological target: Gal(b1-4)GlcNAc(b1-6)Gal(b1-4)GlcNAc(b1-6)GalNAc
Procedure, shortened: as §1

[4] = biological target: Gal(b1-4)GlcNAc(b1-6)GalNAc
Procedure, shortened: as §1

[5] = biological target: Gal(b1-4)GlcNAc(b1-6)[Gal(b1-3)]GalNAc
Procedure, shortened: as §1

[6] = biological target: Gal3S(b1-3)GalNAc
Procedure, shortened: as §1

[7] = biological target: Gal3S(b1-3)GlcNAc
Procedure, shortened: as §1

[8] = biological target: Gal3S(b1-3)[Fuc(a1-4)]GlcNAc
Procedure, shortened: as §1

[9] = biological target: Gal3S(b1-4)Glc
Procedure, shortened: as §1

[10] = biological target: Gal3S(b1-4)Glc6S
Procedure, shortened: as §1

[11] = biological target: Gal3S(b1-4)GlcNAc
Procedure, shortened: as §1

[12] = biological target: Gal3S(b1-4)GlcNAc6S
Procedure, shortened: as §1

[13] = biological target: Gal3S(b1-4)[Fuc(a1-3)]Glc
Procedure, shortened: as §1

[14] = biological target: Gal3S4S(b1-4)GlcNAc
Procedure, shortened: as §1

[15] = biological target: Gal3S6S(b1-4)GlcNAc
Procedure, shortened: as §1

[16] = biological target: Gal3S6S(b1-4)GlcNAc6S
Procedure, shortened: as §1

[17] = biological target: Gal4S(b1-4)GlcNAc
Procedure, shortened: as §1

[18] = biological target: Gal4S6S(b1-4)GlcNAc
Procedure, shortened: as §1

[19] = biological target: Gal6S(b1-4)Glc
Procedure, shortened: as §1

[20] = biological target: Gal6S(b1-4)Glc6S
Procedure, shortened: as §1

[21] = biological target: Gal6S(b1-4)GlcNAc
Procedure, shortened: as §1

[22] = biological target: Gal6S(b1-4)GlcNAc6S
Procedure, shortened: as §1

[23] = biological target: GalNAc(a1-3)Gal
Procedure, shortened: as §1

[24] = biological target: GalNAc(a1-3)GalNAc
Procedure, shortened: as §1

[25] = biological target: GalNAc(b1-3)Gal
Procedure, shortened: as §1

[26] = biological target: GalNAc(b1-3)Gal(a1-4)Gal(b1-4)GlcNAc
Procedure, shortened: as §1

[27] = biological target: GalNAc(b1-3)Gal(a1-4)Gal(b1-4)GlcNAc(b1-3)Gal(b1-4)Glc
Procedure, shortened: as §1

[28] = biological target: GalNAc(b1-3)GalNAc
Procedure, shortened: as §1

[29] = biological target: GalNAc(b1-4)GlcNAc
Procedure, shortened: as §1

[30] = biological target: GalNAc(b1-4)GlcNAc(b1-2)Man(a1-3)[GalNAc(b1-4)GlcNAc(b1-2)Man(a1-6)]Man(b1-4)GlcNAc(b1-4)GlcNAc
Procedure, shortened: as §1

[31] = biological target: Glc(a1-4)Glc
Procedure, shortened: as §1

[32] = biological target: Glc(a1-6)Glc(a1-6)Glc
Procedure, shortened: as §1

[33] = biological target: Glc(b1-4)Glc
Procedure, shortened: as §1

[34] = biological target: Glc(b1-6)Glc
Procedure, shortened: as §1

[35] = biological target: GlcA(b1-3)Gal
Procedure, shortened: as §1

[36] = biological target: GlcA(b1-3)GlcNAc
Procedure, shortened: as §1

[37] = biological target: GlcA(b1-6)Gal
Procedure, shortened: as §1

[38] = biological target: GlcNAc(a1-3)Gal(b1-4)GlcNAc
Procedure, shortened: as §1

[39] = biological target: GlcNAc(a1-4)Gal(b1-3)GlcNAc
Procedure, shortened: as §1

[40] = biological target: GlcNAc(a1-4)Gal(b1-4)GalNAc
Procedure, shortened: as §1

[41] = biological target: GlcNAc(a1-4)Gal(b1-4)GlcNAc
Procedure, shortened: as §1

[42] = biological target: GlcNAc(a1-4)Gal(b1-4)GlcNAc(b1-3)Gal(b1-4)Glc
Procedure, shortened: as §1

[43] = biological target: GlcNAc(a1-4)Gal(b1-4)GlcNAc(b1-3)Gal(b1-4)GlcNAc
Procedure, shortened: as §1

B1: StdA (Salmonella typhimurium), Q8Z3Z0 (protein)
chain: MAAAGMMYGASVFAADTTPTAGPFGSGKILFTGTITNSPCDIAPGDDAITVPFGQISYRKLNTANATTDSKPFTIHLQNCAFDPNETTIAGSAGKMSKVTVSFSGTADTSGKAYVSTGSAQHVGVQLLKGDNTSLITPNTPMPDGDAQQLQAGNNELNFFARLIALTDAATPGDVNASVTYTLKYL
glycan array binding signal (z-score) [1]: 0.177 | glycan array binding signal (z-score) [2]: 0.521 | glycan array binding signal (z-score) [3]: -0.216 | glycan array binding signal (z-score) [4]: -0.338 | glycan array binding signal (z-score) [5]: -0.122 | glycan array binding signal (z-score) [6]: -0.227 | glycan array binding signal (z-score) [7]: 0.018 | glycan array binding signal (z-score) [8]: 0.1 | glycan array binding signal (z-score) [9]: 0.314 | glycan array binding signal (z-score) [10]: -0.225 | glycan array binding signal (z-score) [11]: -0.078 | glycan array binding signal (z-score) [12]: -0.505 | glycan array binding signal (z-score) [13]: -0.547 | glycan array binding signal (z-score) [14]: 0.981 | glycan array binding signal (z-score) [15]: 0.151 | glycan array binding signal (z-score) [16]: -0.494 | glycan array binding signal (z-score) [17]: -0.573 | glycan array binding signal (z-score) [18]: 0.393 | glycan array binding signal (z-score) [19]: -0.489 | glycan array binding signal (z-score) [20]: 0.765 | glycan array binding signal (z-score) [21]: 0.71 | glycan array binding signal (z-score) [22]: -0.164 | glycan array binding signal (z-score) [23]: -0.279 | glycan array binding signal (z-score) [24]: 0.047 | glycan array binding signal (z-score) [25]: -0.409 | glycan array binding signal (z-score) [26]: -0.636 | glycan array binding signal (z-score) [27]: 0.837 | glycan array binding signal (z-score) [28]: -0.077 | glycan array binding signal (z-score) [29]: -0.136 | glycan array binding signal (z-score) [30]: 3.5 | glycan array binding signal (z-score) [31]: 2.13 | glycan array binding signal (z-score) [32]: -1.04 | glycan array binding signal (z-score) [33]: -0.507 | glycan array binding signal (z-score) [34]: -0.054 | glycan array binding signal (z-score) [35]: -0.14 | glycan array binding signal (z-score) [36]: -0.312 | glycan array binding signal (z-score) [37]: -0.599 | glycan array binding signal (z-score) [38]: -0.926 | glycan array binding signal (z-score) [39]: 1.79 | glycan array binding signal (z-score) [40]: 0.974 | glycan array binding signal (z-score) [41]: -0.553 | glycan array binding signal (z-score) [42]: 0.073 | glycan array binding signal (z-score) [43]: -0.599
